Assay results taken from PubChem BioAssay AID1346428 (National Center for Advancing Translational Sciences (NCATS), 2018).
The campaign covered roughly 48,000 compounds. About 1,200 (2.5%) were called active. Not shown: some 2% with an inconclusive outcome.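 How the source made its calls: active means activation of at least 60% and not above a set upper limit (about 1 call in 100 departs from these limits); inconclusive means activation of 40% to 60%, or above that upper limit; inactive means activation under 40%.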 Some of the results follow.

These molecules were tested against Probable G-protein coupled receptor 32 (Homo sapiens) (UniProt O75388) (assay: qHTS for Agonists of Human Resolvin D1 Receptor DRV1). Conditions: CHO-K1 GPR32 beta-arrestin PathHunter luminescence, 90 min; at 76.9 µM; active compounds read high; zero percent set by DMSO-only wells.
UniProt O75388, sequence (O75388 whole entry, looked up, the tested form may be a part): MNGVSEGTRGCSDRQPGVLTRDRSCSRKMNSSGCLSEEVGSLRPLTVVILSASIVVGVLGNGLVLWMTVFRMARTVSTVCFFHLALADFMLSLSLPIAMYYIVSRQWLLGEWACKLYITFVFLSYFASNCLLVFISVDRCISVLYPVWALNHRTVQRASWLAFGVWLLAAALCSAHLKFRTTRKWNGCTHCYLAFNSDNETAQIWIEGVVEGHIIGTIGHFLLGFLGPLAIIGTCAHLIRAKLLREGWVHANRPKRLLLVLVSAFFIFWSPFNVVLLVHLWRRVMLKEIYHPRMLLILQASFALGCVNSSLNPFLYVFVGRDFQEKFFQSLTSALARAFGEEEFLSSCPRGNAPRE
Summary of the method: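 Agonism was scored as beta-arrestin recruitment to ProLink-fused GPR32 in stably transfected CHO-K1 cells, giving a chemiluminescent beta-Gal signal; compounds were incubated 90 min at 37 °C.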
Further: 0% is about no effect.

Row | SMILES | activation
1 | CCOC(=O)c1ccc(NC(=O)c2cn(-c3ccccc3)nc2-c2ccc(C)cc2)cc1 | inactive: -2.93%
2 | Cc1oc2cc3oc(=O)c(CC(=O)N4CCCCC4)c(C)c3cc2c1C | inactive: 0.246%
3 | CCCc1ccc(S(=O)(=O)N2CCC(c3nnnn3-c3ccc(OC)cc3)CC2)cc1 | inactive: -11.6%
4 | CCOc1cc(C#N)c(NC(=O)c2ccc(OC)c(S(=O)(=O)N3CCN(c4ccccc4)CC3)c2)cc1OCC | inactive: -8.66%
5 | N#CC1=C2SCN(C3CCCCC3)CN2C(=O)CC1c1ccc(Br)cc1 (stereo not drawn) | inactive: 31.3%
6 | CCCOc1ccc(CNC(=O)c2oc3ccc4c(c3c2C)C(=O)CC(C)(CC)O4)cc1 (stereo not drawn) | inactive: -12.1%
7 | CN1CCOC(c2ccccc2)c2ccccc2C1 (stereo not drawn) | inactive: 38.2%
8 | COc1ccc(CNC(=O)Cn2c(=O)c3cccn3c3ccccc32)cc1 | inactive: -18.1%
9 | CSc1nc(-c2ccccc2Cl)nc2c1Cc1c(CO)cnc(C)c1O2 | inactive: 14.5%
10 | CCc1nnc2c(N3CCN(c4cccc(C(F)(F)F)c4)CC3)nc3ccccc3n12 | inactive: -8.91%
11 | COc1ccc(N(CC(=O)N2CCc3ccccc3C2)S(=O)(=O)c2ccc(C)cc2)cc1Cl | inactive: -1.68%
12 | O=C(Cn1c(=O)n(Cc2ccco2)c(=O)c2oc3ccccc3c21)Nc1ccc(F)c(Cl)c1 | inactive: -9.18%
13 | COc1cccc(CNc2ncnc3onc(C)c23)c1 | inactive: 32.8%
14 | O=C(Nc1c(C(=O)N2CCN(c3ccccc3F)CC2)oc2ccccc12)c1ccco1 | inactive: -11.7%
15 | CNc1ccc(-c2nc(-c3ccccc3C)no2)cc1[N+](=O)[O-] | inactive: -14.2%
16 | COc1ccc(C2=C(C(C)=O)Sc3nnc(-c4ccc(Cl)cc4)n3N2C(C)=O)cc1OC | inactive: -33.1%
17 | CN1CCN(CCCNC(=O)c2cnn(-c3ccc(F)cc3)c2-n2cccc2)CC1 | inactive: -5.21%
18 | Cc1ccc(OCCCCn2cnc3ccccc32)cc1 | inactive: 27.9%
19 | O=C(Nc1nc2n(n1)C(c1ccccc1)C=C(c1ccccc1)N2)c1ccccc1 (stereo not drawn) | inactive: 13.8%
20 | COc1ccc(CNC(=O)CSc2n[nH]c(-c3ccc(F)cc3)n2)cc1 | inactive: -0.93%
21 | CS(=O)(=O)c1ccccc1-c1nnc(NC(=O)c2ccc3c(c2)OCCO3)o1 | inactive: -56.1%

Row | SMILES | activation
22 | COc1cc(Cl)c(C)cc1NC(=O)CCc1c(C)nc2c3cccnc3nn2c1C | inactive: 3.1%
23 | O=C(Nc1ccc(C(=O)N2CCCCC2)cc1)c1nsc2ccccc12 | inactive: 11%
24 | Fc1ccc(Nc2nc(SCc3cccc(Cl)c3)nc3ccccc23)cc1 | inactive: -6.71%
25 | COc1ccc(CNC(=O)CN(c2ccc(C)cc2)S(=O)(=O)c2c(C)noc2C)cc1 | inactive: 27.2%
26 | COc1ccc(CNC(=O)C(CCSC)NS(=O)(=O)c2ccc3c(c2)oc(=O)n3C)cc1 (stereo not drawn) | inactive: -2.17%
27 | Cc1ccc(C)c(CN2C(=O)c3ccccc3S(=O)(=O)c3ccc(C(=O)Nc4cc(F)ccc4F)cc32)c1 | inactive: -1.18%
28 | COc1ccc(NC(=O)c2nnn(CC(=O)Nc3c(C)cc(C)cc3C)c2N)cc1OC | inactive: -7.48%
29 | CNC(=O)C(=O)NCC(c1ccc2c(c1)OCO2)N1CCOCC1 (stereo not drawn) | inactive: -15.1%
30 | Cc1cc(C)cc(NC(=O)CSc2nc3c([nH]c4ccccc43)c(=O)n2-c2ccc(F)cc2)c1 | inactive: -2.07%
31 | CCOc1ccc(-c2cc(NC(=O)c3cccc(Cl)c3)c(C(=O)OC)s2)cc1 | inactive: 2.64%
32 | CCCOc1ccc(C(=O)Nc2nonc2-c2ccc(OCC)cc2)cc1 | inactive: -12.7%
33 | CC1=C(C(=O)Nc2ccccc2)C(c2ccc(C)cc2)n2nc(SCc3ccccc3C)nc2N1 (stereo not drawn) | inactive: 6.82%
34 | O=C(c1ccc(F)cc1F)N1CCC(c2nc(-c3ccc(S(=O)(=O)N4CCCC4)cc3)no2)CC1 | inactive: -4.62%
35 | Cc1cccc(C)c1OCC(N)C(C)C (stereo not drawn) | inactive: -12.4%
36 | COc1ccc(CNC(=O)C2=C(C)C(=O)OC23CCCCC3)cc1OC | inactive: -4.95%
37 | Cc1ccc(NC(=O)CSc2nnc(-c3nnn(-c4ccc(F)cc4)c3C)o2)cc1Br | inactive: 8.88%
38 | CCc1ccc(C(=O)COC(=O)C(Cc2c[nH]c3ccccc23)NC(=O)c2ccc(CC)cc2)cc1 (stereo not drawn) | inactive: -18.2%
39 | COc1ccc(CNC(=O)c2cc3cc4ccc(C)cc4nc3o2)cc1 | inactive: 38.1%
40 | O=C(Cc1ccccc1)Nc1c(C(=O)c2ccccc2)oc2ccccc12 | inactive: -25.7%
41 | Cc1nc(-c2cccc(F)c2)sc1CCNC(=O)c1c(F)cccc1Cl | inactive: 30.9%
42 | COc1cccc(N2CCN(C(=O)c3cc4c(s3)-c3c(C)cccc3OC4)CC2)c1 | inactive: -16.5%

Row | SMILES | activation
43 | CCCCn1c(=NC(=O)C(C)(C)Oc2ccc(Cl)cc2)c(C(=O)OCC)cc2c(=O)n3ccccc3nc21 | inactive: -3.8%
44 | Cc1ccc(NC(=O)CN2C(=O)COc3ccc(S(=O)(=O)N4CCCCCC4)cc32)cc1Cl | inactive: -18.3%
45 | Cc1ccc(OCC(=O)Nc2nonc2-c2ccc(C)c(C)c2)cc1C | inactive: 19.5%
46 | CC(C)Cc1nn2c(=O)cc(COC(=O)CNC(=O)c3ccc(C(C)(C)C)cc3)nc2s1 | inactive: 0.997%
47 | Cc1ccc(C)c(CNC(=O)c2ccc3c(c2)nc2n3CCOC2)c1 | inactive: -7.54%
48 | CC1CCCN(CCCNC(=O)c2ccc3c(c2)N(Cc2cccc(Cl)c2)C(=O)c2ccccc2S3(=O)=O)C1 (stereo not drawn) | inactive: -26.9%
49 | O=C(Nc1ccc(OC(F)(F)F)cc1)C(Cc1ccccc1)NS(=O)(=O)c1cccc2nsnc12 (stereo not drawn) | inactive: -17.8%
50 | COc1ccccc1C(=O)Nc1cccc(C(=O)OCc2cc(=O)n3nc(C4CC4)sc3n2)c1 | inactive: 7.51%
51 | COC(=O)c1ccc(C2c3c(oc4ccc(C)cc4c3=O)C(=O)N2Cc2ccc3c(c2)OCO3)cc1 (stereo not drawn) | inactive: 2.89%
52 | CCOC(=O)c1c(Nc2ccc(O)cc2)nnc(-c2ccccc2)c1-c1ccccc1 | active: 65.9%
53 | Cc1ccc(S(=O)(=O)c2nnn3c2nc(NCc2ccc4c(c2)OCO4)c2sccc23)cc1 | inactive: -20.9%
54 | COc1cccc(CNC(=O)Cn2ccc3cc(S(=O)(=O)N4CCCC4)ccc32)c1OC | inactive: 23.9%
55 | OCC(O)CS (stereo not drawn) | inactive: -2.7%
56 | Cc1ccc(S(=O)(=O)c2cnc(SCC(=O)Nc3ccc4c(c3)OCCO4)[nH]c2=O)cc1Cl | inactive: 10.9%
57 | CCOc1cc(C2C(C(=O)OC)=C(C)NC3=C2C(=O)c2ccccc23)ccc1OC (stereo not drawn) | inactive: -51.1%
58 | O=C(NCCc1ccccc1)c1ccc2nc(N3CCCCC3)sc2c1 | inactive: -6.97%
59 | CCCn1c2ccccc2c2cnn(CC(=O)NCCCN3CCCCC3)c(=O)c21 | inactive: -16.8%
60 | CCOc1ccc(NC(=O)c2sc3nc4c(c(-c5ccccc5)c3c2N)C(=O)CC(C)(C)C4)cc1 | inactive: -0.261%
61 | COc1ccc(OC)c(CN2CCN(S(=O)(=O)c3ccccc3)CC2)c1 | inactive: -3.7%
62 | Cc1ccccc1-c1ccnc2[nH]n(-c3ccccc3)c(=O)c12 | inactive: -19.6%
63 | O=S(=O)(NCC(c1ccco1)N1CCOCC1)c1ccc(Br)cc1 (stereo not drawn) | inactive: 29.8%

Row | SMILES | activation
64 | Cc1ccccc1NC(=O)c1cn(-c2ccccc2)nc1-c1ccccc1 | inactive: -18.7%
65 | Cc1ccc2oc(C(=O)N(Cc3ccc(N(C)C)cc3)CC3CCCO3)c(C)c2c1 (stereo not drawn) | inactive: -31.4%
66 | CCOC(=O)c1c(NC(=O)CSc2cn(CCNC(=O)c3cccc(C(F)(F)F)c3)c3ccccc23)sc2c1CCC2 | inactive: -2.1%
67 | CN1CCC(=C2c3ccccc3CCc3sccc32)CC1 | inactive: 15.8%
68 | CC(NC(=O)C1CCN(S(=O)(=O)c2ccc(F)cc2)CC1)c1ccccc1 (stereo not drawn) | inactive: 6.62%
69 | CC1CCC(N2CC(=O)N(C3CCCCC3)C(c3ccc(Cl)cc3)C2=O)CC1 (stereo not drawn) | inactive: -17.3%
70 | O=C(Nc1ccc(Br)cc1)c1cc(-c2cccs2)nc2ccccc12 | inactive: -0.0319%
71 | COc1cccc(C(=O)Nc2nc3ccc(S(=O)(=O)N4CCCC4)cc3s2)c1 | inactive: -9.1%
72 | CC(=O)Nc1ccc(NC(=O)CSc2nccn2Cc2ccc3c(c2)OCO3)cc1 | inactive: 0.139%
73 | COc1cc(NC(=O)CSc2ncc3c(n2)-c2ccc(Cl)cc2N(Cc2ccccc2)S3(=O)=O)cc(OC)c1 | inactive: 0.499%
74 | CC(C)c1ccc(NC(=O)CSC2=Nc3ccccc3C3=NC(CC(=O)NCc4cccs4)C(=O)N23)cc1 (stereo not drawn) | inactive: -12.5%
75 | COc1ccc(-c2cc(C(=O)Oc3ccc(C)cc3)c3ccccc3n2)cc1 | inactive: 12.6%
76 | CC(C)Oc1ccc(C(=O)N2CCC(c3nc4ccccc4o3)CC2)cc1 | inactive: -23.9%
77 | Cc1ccc(NS(=O)(=O)c2ccc(-c3cnc(C4CC4)o3)cc2)cc1N(C)C | inactive: -46.8%
78 | CCOc1ccccc1CNC(=O)CCc1c(C)nn(-c2ccc(N3CCCCC3)nn2)c1C | inactive: -0.818%
79 | CN(C)CCNC(=O)C1CCN(c2ncnc3c2nc2n3CCCCC2)CC1 | inactive: -6.45%
80 | O=C1CSC2(C(=O)N(Cc3ccccc3F)c3ccccc32)N1c1cccc(C(F)(F)F)c1 (stereo not drawn) | inactive: -18.4%
81 | O=C(Cn1ncc2c3ccccc3n(Cc3ccc(Cl)cc3)c2c1=O)NCCC1=CCCCC1 | inactive: -4.34%
82 | CC(=O)c1sc(NC(=O)c2c(-c3ccccc3)c(-c3ccccc3)nn(C)c2=O)nc1C | inactive: -4.37%
83 | CCN1CCN(C(=O)c2cnn(-c3ccc(F)cc3F)c2C2CCN(C(=O)OC(C)(C)C)CC2)CC1 | inactive: -8.1%
